Measured values published in PubChem BioAssay AID1963318 (National Center for Advancing Translational Sciences (NCATS), 2024).
Out of some 1,300 compounds screened, about 100 (7.7%) were called active. The shares of active, inactive and inconclusive entries below differ from those in the screen. The call rests on the fitted dose curve; in most records, active means well fitted activation curve with a large enough effect; inconclusive means small, poorly fitted or top-dose-only effect; inactive means no such curve, though single readings can be large or run the other way. Where the call is inconclusive, the potency comes from a doubtful curve fit.

biological target: Luciferin 4-monooxygenase (Photinus pyralis) (UniProt P08659); assay: Firefly luciferase (FLuc-C-HiBiT) SDR gain of signal screen - without ATP; details: Purified FLuc-C-HiBiT, Nano-Glo HiBiT luminescence, no ATP; series mostly up to 65.7 µM; further: nearly all actives have a fitted effect of over 55% in size
UniProt P08659, sequence (P08659 whole entry, looked up): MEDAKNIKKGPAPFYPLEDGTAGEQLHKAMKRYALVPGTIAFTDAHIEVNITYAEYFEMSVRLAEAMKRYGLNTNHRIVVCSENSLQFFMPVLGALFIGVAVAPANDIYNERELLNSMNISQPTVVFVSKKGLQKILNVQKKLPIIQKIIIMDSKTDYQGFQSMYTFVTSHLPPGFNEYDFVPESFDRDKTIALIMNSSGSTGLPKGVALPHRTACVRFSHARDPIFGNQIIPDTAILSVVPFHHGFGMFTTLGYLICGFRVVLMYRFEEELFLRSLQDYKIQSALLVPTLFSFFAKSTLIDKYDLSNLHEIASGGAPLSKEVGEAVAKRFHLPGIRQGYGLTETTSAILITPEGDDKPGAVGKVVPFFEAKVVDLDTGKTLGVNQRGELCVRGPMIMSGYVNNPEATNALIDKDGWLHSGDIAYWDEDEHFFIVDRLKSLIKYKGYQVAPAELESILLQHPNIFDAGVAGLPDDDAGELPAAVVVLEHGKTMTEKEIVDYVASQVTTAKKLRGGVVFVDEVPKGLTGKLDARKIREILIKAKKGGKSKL
Excerpt: PI: James Inglese Ph.D. National Center for Advancing Translational Sciences (NCATS), National Institute of Health (NIH), Maryland Discovery and optimization of novel protein-binding ligands underlies many of the methods and applications of biology, drug discovery, clinical diagnostics, and environmental toxicology. Assays for detecting the interaction of, for example, a molecule with a macromolecular target also referred to here as the target of interest (TOI) is dependent on a compatible output technology. Depending on the nature and knowledge surrounding the TOI, whether a receptor, enzyme, regulatory subunit or scaffold, or a sequence-defined nucleic acid folded into a complex tertiary structure, assay strategies can vary widely. Here we exploit ligand-biased changes in the structural dynamics of the target protein to control reporter alpha complementation allowing a non-competitive, non-functional, non-separation measure of ligand-target interaction. […] Secondly, we show the specificity and sensitivity of the SDR for the Abelson tyrosine kinase (ABL1) compared to the serine/threonine protein kinase A, using an enriched chemical library of 128 compounds selected, in part, for activity annotated with ABL1 kinase activity using the Pharos database (3). References: (1) A. S. Dixon et al., NanoLuc Complementation Reporter Optimized for Accurate Measurement of Protein Interactions in Cells. ACS Chem Biol 11, 400-408 (2016). […] Chemistry & Biology, 19, 1060 - 1072 (2012). (3) K. J. Kelleher et al., Pharos 2023: an integrated resource for the understudied human proteome. Nucleic Acids Res 51, D1405-D1416 (2023).
1. Reagent. Dispense 4 uL FLuc-C-HiBiT enzyme-buffer solution per well at a final enzyme concentration of 10 nM with or without 10 uM ATP into columns 2-48 of white, solid bottom medium bind 1536-well plates (Greiner Bio-One) by BioRaptr 2. Dispense respective buffer without enzyme at 4 uL/well in column 1 of assay plates. 2. Compounds. Library compounds and PTC124 control added at 23 nL per well, transfer by Pin Tool. 3. Incubation. Incubate enzyme and compounds at room temperature for >30 min, protect from light. 4. Reagent. (SDR assay) Add 3 uL/well of Nano-Glo HiBiT reagent (Promega) to assay plates for SDR assay without ATP. 5. Incubation. Incubate enzyme and substrate or detection reagent at room temperature for 5-10 min, protect from light. 6. Detector. HiBiT SDR assay measured using CCD-based camera (ViewLux) with settings as follows: Exposure, 1 sec; Gain, High; Speed, Slow; Binning, 2X. REFERENCES: Inglese J, Shamu CE and Guy RK, Reporting data from high throughput screening of small molecule libraries, Nature Chemical Biology, 2007, 3(8): 438-441. doi.org/10.1038/nchembio0807-438.
Potency means the concentration at half of the fitted maximal effect; tags describe the fitted curve by direction and shape.

| SMILES | Potency |
| --- | --- |
| O=C(Nc1ccccc1)Nc1ccc2n(c1=O)C[C@H]1C[C@@H]2CN(C(=O)c2ccccc2)C1 | inconclusive: 20.2 µM [activator, partial curve, poor fit] |
| Cc1cc(-c2cc3c(cn2)CN(CC(C)C)CCN3)ccn1 | inconclusive: 25.5 µM [activator, partial curve, poor fit] |
| CN1CCNc2cc(Nc3ccc(F)cc3)ncc2C1 | inactive |
| CN1CCN(C(=O)COc2ccc(-c3nc4ccccc4s3)cc2)CC1 | active: 1.57 µM |
| Cc1ccccc1Cn1cccc(C(=O)Nc2nc3ccccc3s2)c1=O | inconclusive: 1.11 µM [activator, full curve, poor fit] |
| COc1ccc(-n2cc(C3=CCN(CCN4CCOCC4)CC3)cn2)cc1 | inconclusive: 15.7 µM [activator, partial curve, poor fit] |
| COc1ccc(-c2cc3c(cn2)CN(C)CCN3)cn1 | inactive |
| CC(C)(C)CC(=O)N1C[C@@H]2C[C@H](C1)c1ccc(NC(=O)Nc3cccc(F)c3)c(=O)n1C2 | inactive |
